From PubChem BioAssay (NCATS)
Values joined by “and” are separate entries in the source; they are usually repeats but may differ in a detail not shown here. Identical values can stand only once. This list was built around the results that the source calls inconclusive (neither active nor inactive); the mix of calls is not that of the screen. For some of these results: A potency beside an inconclusive call is a rough fit, not a confirmed value. Active and inactive are the calls of the source. The call rests on the fitted dose curve; in most records, active means well fitted curve in the direction sought with a large enough effect; inconclusive means small, poorly fitted or top-dose-only effect, or another doubt; inactive means no such curve, though single readings can be large; an effect the other way counts as inactive or inconclusive.

Experiments:
[1] = P-glycoprotein substrates identified in KB-8-5-11 adenocarcinoma cell line, qHTS therapeutic library screen (AID 1346987); further: potency means the concentration at half of the fitted maximal effect; nearly all actives have a fitted effect of over 65% in size
In short: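 KB-8-5-11, a colchicine-selected P-gp-overexpressing KB-3-1 subline, was grown without colchicine for the assay. Cells were seeded at 500 cells/well, dosed in concentration-response and incubated 72 h at 37 degree C, 5% CO2. Viability was read by CellTiter-Glo luminescence.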

[2] = Primary qHTS for inhibitors of nuclear receptor binding SET domain protein 2 (NSD2) in an isogenic RCH-ACV NSD2 p.E1099K mutant (9B) (AID 1645876); further: potency means the concentration at half of the fitted maximal effect; nearly all actives have a fitted effect of over 70% in size
[3] = Primary qHTS for inhibitors of nuclear receptor binding SET domain protein 2 (NSD2) in an RCH-ACV wild type WT cells (2C) (AID 1645877); conditions: activity change, negative = cell killing: at 44.9 µM (top of the series) unless noted; further: potency means the concentration at half of the fitted maximal effect; nearly all actives have a fitted effect of over 70% in size
[4] = tested on: CRL-7250; assay: Cytotoxic Profiling of Annotated Libraries Using Quantitative High-Throughput Screening (AID 1296008); conditions: Five cell lines viability, CellTiter-Glo ATP luminescence, 48-72 h; max response: stronger effect = lower value; further: potency means the concentration at half of the fitted maximal effect; nearly all actives have a fitted effect of over 60% in size
In short: (§1)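 Compounds were pin-transferred onto cells and incubated 48 or 72 hr at 37 degree Celsius, 95% humidity. CellTiter-Glo was added, plates sat 10 min at room temperature, then ATP-coupled luminescence was imaged as the viability read-out.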

[5] = tested on: HaCat; assay: as above; conditions: Five cell lines viability, CellTiter-Glo ATP luminescence, 48-72 h; max response: stronger effect = lower value
In short: as §1

[6] = tested on: KB-3-1; assay: as above; conditions: Five cell lines viability, CellTiter-Glo ATP luminescence, 48-72 h; max response: stronger effect = lower value
In short: as §1

[7] = tested on: NIH3T3; assay: as above; conditions: Five cell lines viability, CellTiter-Glo ATP luminescence, 48-72 h; max response: stronger effect = lower value
In short: as §1

[8] = tested on: C33A; assay: Primary qHTS to identify gynecologic anti-cancer compounds using libraries of approved drugs and bioactive compounds (AID 1345084); conditions: Gynecologic cancer cell panel viability, ATPlite luminescence, 48 h; series mostly up to 57.5 µM; further: nearly all actives have a fitted effect of over 55% in size; further: potency means the concentration at half of the fitted maximal effect
In short: (§2)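 Five-concentration response, 48 h; readout is ATP-driven luciferase luminescence.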

[9] = tested on: CAOV3; assay: as above; conditions: Gynecologic cancer cell panel viability, ATPlite luminescence, 48 h; activity change, negative = cytotoxicity: at 57.5 µM (top of the series)
In short: as §2

[10] = tested on: Es-2; assay: as above; conditions: Gynecologic cancer cell panel viability, ATPlite luminescence, 48 h; series mostly up to 57.5 µM
In short: as §2

[11] = tested on: OV90; assay: as above; conditions: Gynecologic cancer cell panel viability, ATPlite luminescence, 48 h; series mostly up to 57.5 µM
In short: as §2

[12] = tested on: PA-1; assay: as above; conditions: Gynecologic cancer cell panel viability, ATPlite luminescence, 48 h; series mostly up to 57.5 µM
In short: as §2

[13] = tested on: SKOV3; assay: as above; conditions: Gynecologic cancer cell panel viability, ATPlite luminescence, 48 h; series mostly up to 57.5 µM
In short: as §2

[14] = tested on: CASKI; assay: as above; conditions: Gynecologic cancer cell panel viability, ATPlite luminescence, 48 h; series mostly up to 57.5 µM
In short: as §2

[15] = tested on: HeLa; assay: as above; conditions: Gynecologic cancer cell panel viability, ATPlite luminescence, 48 h; activity change, negative = cytotoxicity: at 57.5 µM (top of the series)
In short: as §2

[16] = tested on: Hek293T; assay: as above; conditions: Gynecologic cancer cell panel viability, ATPlite luminescence, 48 h, control line for the selectivity index; activity change, negative = cytotoxicity: at 57.5 µM (top of the series) unless noted
In short: as §2

[17] = tested on: Tov-21-G; assay: as above; conditions: Gynecologic cancer cell panel viability, ATPlite luminescence, 48 h; activity change, negative = cytotoxicity: at 57.5 µM (top of the series) unless noted
In short: as §2

[18] = tested on: Zika virus NS2B-NS3 protease (unlinked complex); assay: Primary screen GU Rhodamine qHTS for Zika virus inhibitors: Unlinked NS2B-NS3 protease assay (AID 1347159); further: nearly all actives have a fitted effect of over 60% in size
In short: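 Noncovalent NS2B hydrophilic domain/NS3 protease complex (25 nM final) in 10 mM Tris-HCl pH 8.0, 0.01% Tween 20, preincubated 15 min with compounds (up to 114 microM), then 1.5 microM Rhodamine110 substrate. Fluorescence change over 15 min fitted to 4-parameter Hill.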

[19] = tested on: JEG-3; assay: Primary qHTS to identify gynecologic anti-cancer compounds using libraries of approved drugs and bioactive compounds (AID 1345084); conditions: Gynecologic cancer cell panel viability, ATPlite luminescence, 48 h; series mostly up to 57.5 µM; further: nearly all actives have a fitted effect of over 55% in size; further: potency means the concentration at half of the fitted maximal effect
In short: as §2

[20] = tested on: Tov112D; assay: as above; conditions: Gynecologic cancer cell panel viability, ATPlite luminescence, 48 h; series mostly up to 57.5 µM
In short: as §2
Tags describe the fitted curve by direction and shape.

Row | SMILES | Potency [1] | Potency [2] | Potency [3] | Potency [4] | Potency [5] | Potency [6] | Potency [7] | Potency [8] | Potency [9] | Potency [10] | Potency [11] | Potency [12] | Potency [13] | Potency [14] | Potency [15] | Potency [16] | Potency [17] | Potency [18] | Potency [19] | Potency [20]
1 | CCOc1cc2c(c(F)c1OCC)C(=N)N(CC(=O)c1cc(N3CCOCC3)c(OC)c(C(C)(C)C)c1)C2 | active: 20.9 µM and inconclusive: 18.4 µM [inhibitor, single point] | active: 23 µM and inconclusive: 33.2 µM [inhibitor, single point] | inconclusive: 33.2 µM [inhibitor, single point] | inconclusive: 29.6 µM [inhibitor, single point] and inconclusive: 29.1 µM [inhibitor, single point] | inconclusive: 26.4 µM [inhibitor, single point] | inconclusive: 33.2 µM [inhibitor, single point] and inconclusive: 16.4 µM [inhibitor, single point] | inconclusive: 18.4 µM [inhibitor, single point] | inconclusive: 39.8 µM [cytotoxic, partial curve, poor fit] | inconclusive: 39.8 µM [cytotoxic, single point] | inactive | inconclusive: 39.8 µM [cytotoxic, single point] | inconclusive: 7.08 µM | inconclusive: 35.5 µM [cytotoxic, single point] | – | – | – | – | – | – | –
2 | CCS(=O)(=O)N1CCN(c2ccc(Nc3ncc(C(N)=O)c(NC4CC4)n3)cc2)CC1 | active: 7.31 µM | – | – | inconclusive: 0.82 µM [inhibitor, full curve, poor fit] | inconclusive: 29.1 µM [inhibitor, single point] | active: 5.17 µM | inconclusive: 1.3 µM [inhibitor, full curve] | inconclusive: 20 µM [cytotoxic, single point] | inconclusive: 11.2 µM [cytotoxic, partial curve] | inconclusive: 15.8 µM [cytotoxic, partial curve, poor fit] | active: 12.6 µM | inconclusive: 1.58 µM [cytotoxic, single point] | inconclusive: 20 µM [cytotoxic, partial curve, poor fit] | inconclusive: 28.2 µM [cytotoxic, partial curve] | inconclusive: 3.55 µM [cytotoxic, partial curve, poor fit] | inconclusive: 35.5 µM [cytotoxic, single point] | inconclusive: 39.8 µM [cytotoxic, single point] | – | – | –
3 | Cc1ccc(C(=O)N(CCCN)C(c2nc3cc(Cl)ccc3c(=O)n2Cc2ccccc2)C(C)C)cc1 (stereo unspecified) | active: 0.517 µM | – | – | inconclusive: 29.1 µM [inhibitor, partial curve, poor fit] | inconclusive: 0.0046 µM [inhibitor, full curve, poor fit] | active: 0.0082 µM | inconclusive: 16.4 µM [inhibitor, partial curve, poor fit] | inconclusive: 35.5 µM [cytotoxic, single point] | active: 25.1 µM | inconclusive: 39.8 µM [cytotoxic, single point] | – | inconclusive: 50.1 µM | inconclusive: 39.8 µM | active: 25.1 µM | inconclusive: 28.2 µM | inconclusive: 39.8 µM [cytotoxic, single point] | inconclusive: 39.8 µM [cytotoxic, single point] | inactive | inconclusive: 39.8 µM | inconclusive: 35.5 µM
4 | O=C(Nc1nc2cccc(-c3ccc(CN4CCS(=O)(=O)CC4)cc3)n2n1)C1CC1 | inconclusive: 37.2 µM [inhibitor, single point] and inconclusive: 29.1 µM [inhibitor, single point] | active: 14.5 µM and active: 14.8 µM | – | inconclusive: 20.6 µM [inhibitor, single point] | inconclusive: 37.2 µM [inhibitor, single point] and inconclusive: 8.2 µM [inhibitor, partial curve, poor fit] | inconclusive: 29.1 µM [inhibitor, single point] | inconclusive: 33.2 µM [inhibitor, single point] | inconclusive: 31.6 µM [cytotoxic, single point] | inconclusive: 17.8 µM [cytotoxic, partial curve] | inconclusive: 28.2 µM [cytotoxic, single point] | – | inconclusive: 25.1 µM [cytotoxic, single point] | inactive | inconclusive: 22.4 µM [cytotoxic, single point] | – | inconclusive: 39.8 µM [cytotoxic, single point] | inconclusive: 39.8 µM [cytotoxic, single point] | – | inconclusive: 39.8 µM [cytotoxic, single point] | inconclusive: 22.4 µM [cytotoxic, partial curve, poor fit]
